Experimental data as given in PubChem BioAssay AID1347417 (National Center for Advancing Translational Sciences (NCATS), 2020).
Hit rate of the full screen: of about 120,000 compounds, about 5,300 (4.4%) were called active. The shares of active, inactive and inconclusive entries below differ from those in the screen. Calls come from the whole dose curve; as a rule, active = well fitted inhibition curve with a large enough effect; inconclusive = small, poorly fitted or top-dose-only effect; inactive = no such curve, though single readings can be large or run the other way. A potency beside an inconclusive call is a rough fit, not a confirmed value.

Test: qHTS Primary assay for Inhibitors of Plasmodium falciparum Dd2 growth in vitro; note: nearly all actives have a fitted effect of over 65% in size
Settings: P. falciparum Dd2 growth, SYBR Green, 72 h; series mostly up to 28.9 µM
Method in brief: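 Readout: SYBR Green fluorescence, 485 nm excitation, 535 nm emission, after ~16 h lysis at 37C. Before that, Dd2-infected red cells (2.5% hematocrit) grew 72 h with compound, 29 uM top final concentration.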
Potency is the fitted concentration of half-maximal effect; tags give direction and shape of the fitted curve.

Row | Compound | Potency
1 | COc1ccccc1C(=O)N1CCC(C(NC(=O)c2cccs2)C(=O)N2CCCCC2)CC1 (configuration not stated) | inconclusive: 7.94 µM [inhibitor, single point]
2 | O=C(NCC1CCCCC1)c1cccnc1N1CC2CC(C1)[C@H]1CCCC(=O)N1C2 (some centres not stated) | inconclusive: 20 µM [inhibitor, single point]
3 | O=C(Nc1ccc(F)cc1)C1CN(c2cccc(Cl)c2)C(=O)N1 (configuration not stated) | inactive
4 | C[C@]1(CO)[C@H]2Cc3sc(NC(=O)c4ccnc(Cl)c4)nc3[C@@H](CC(=O)O)[C@]2(C)CC[C@H]1O | inconclusive: 1.78 µM [inhibitor, full curve, poor fit]
5 | CCOc1ccc(CNC(=O)c2ccccc2NC(=O)c2nsc3ccccc23)cc1 | inconclusive: 20 µM [inhibitor, partial curve, poor fit]
6 | O=C(Nc1ccccc1F)N1CCOC(c2ccc(Cl)cc2)C1 (configuration not stated) | inactive
7 | NCc1cccc(-c2ccc(OC(F)(F)F)cc2)c1 | inconclusive: 15.8 µM [inhibitor, single point]
8 | CCCNC(=O)c1ccccc1NC(=O)c1nsc2ccccc12 | inconclusive: 17.8 µM [inhibitor, single point]
9 | FC(F)(F)c1ccc(-c2ncc[nH]2)cc1 | inconclusive: 22.4 µM [inhibitor, partial curve]
10 | CCCCc1ncc(-c2nccn2C2CCNC2)[nH]1 (configuration not stated) | inactive
11 | Cc1ccc(NC(=O)Nc2ccc3nc(N4CCN(C)CC4)cc(C)c3c2)cc1F | inconclusive: 1 µM [inhibitor, single point]
12 | COc1ccc2nc(C[C@@H]3C[C@@H](C(C)C)[C@H](CN)C=C3C)[nH]c2c1 | inconclusive: 3.55 µM [inhibitor, full curve, poor fit]
13 | CN(C)Cc1nnc(C2CC(NC(=O)c3cc4ncccn4n3)C2)n1C (configuration not stated) | inconclusive: 17.8 µM [inhibitor, single point]
14 | O=C(COc1ccccc1)N1CCCN(c2cc(-c3ccc(Cl)cc3)[nH]n2)CC1 | inconclusive: 1.41 µM [inhibitor, partial curve, poor fit]
15 | CCCN(CCC)CCCNC(=O)C1CCN(c2nc3ccc(CC)cc3s2)CC1 | active: 7.08 µM
16 | CCc1cn[nH]c1C1CCCN(C(=O)c2ccc(Cn3nnnc3C)cc2)C1 (configuration not stated) | inactive
17 | COCCN1CCCCCC(O)c2cc(C(=O)NCc3cc(F)cc(F)c3)ccc21 (configuration not stated) | active: 12.6 µM
18 | Cc1nn(-c2ccc(C(F)(F)F)cc2)c(C)c1[C@@H]1C=C[C@@H](NC(=O)NC(C)C)C1 | inactive
19 | CC1(C)Cc2cc(CNC(=O)c3cccc(C4CCNC4)c3)ccc2O1 (configuration not stated) | inconclusive: 17.8 µM [inhibitor, single point]
20 | CCOc1ccc(CCNC(=O)c2cc3c(=O)n(C)c4ccccc4c3n2C)cc1OCC | inconclusive: 11.2 µM [inhibitor, single point]
21 | Cc1c(-c2ccc(Cl)cc2)c(=O)oc2c(CN3CCN(CCO)CC3)c(O)ccc12 | inconclusive: 10 µM [inhibitor, single point]

Row | Compound | Potency
22 | COCC[C@]1(O)CCN(C(=O)CN2C(=O)CNC2=O)C[C@H]1C | inactive
23 | CCCc1cc(N2CCN(c3cccc(C)c3C)CC2)n2cnnc2n1 | inconclusive: 15.8 µM [inhibitor, single point]
24 | CCC1=C(C(=O)OC)C(c2cccc(C)c2)N2C(CC(=O)NCC3CC3)=CSC2=N1 (configuration not stated) | inconclusive: 1.26 µM [inhibitor, full curve]
25 | CCc1noc(-c2cn(C3CCN(C(=O)c4ccc(C)c(F)c4)CC3)nn2)n1 | inactive
26 | O=C(c1cc(CN2CCOCC2)on1)N1CCC2(CC1)NCCc1c2[nH]c2ccccc12 | inconclusive: 3.98 µM [inhibitor, single point]
27 | CCc1noc(-c2ccn3c(CNC(=O)C4CCCC4)nnc3c2)n1 | inconclusive: 3.55 µM [inhibitor, partial curve, poor fit]
28 | Cc1ccccc1N1CCN(C(=O)c2ccc3c(c2)N(C)C2CCCCCN2C3=O)CC1 (configuration not stated) | inconclusive: 2.82 µM [inhibitor, full curve, poor fit]
29 | O=C(NCCc1ccncc1)C1CN(S(=O)(=O)c2ccccc2)CC12CCOCC2 (configuration not stated) | inactive
30 | Cc1cc(OCCn2c(CCNC(=O)C3CCCCC3)nc3ccccc32)ccc1Cl | inconclusive: 11.2 µM [inhibitor, single point]
31 | O=C(NC1CCCCC1)C1CN(S(=O)(=O)c2cccc(Cl)c2)CC12CCOCC2 (configuration not stated) | inconclusive: 17.8 µM [inhibitor, single point]
32 | Cc1ccc(Cl)cc1N1CCN(C(=O)Cn2c(-c3cccs3)cc3cc(F)ccc32)CC1 | inconclusive: 8.91 µM [inhibitor, partial curve, poor fit]
33 | O=C1NC(=NC2CCCCC2)C2(CCN([S+](=O)([O-])c3ccccc3)C2)N1c1cc(F)cc(F)c1 (configuration not stated) | inactive
34 | Cc1cn2nc(C(=O)Nc3ccc(C(=O)N4CCCC4)cc3)cc2c(=O)[nH]1 | inactive
35 | Cc1ccc(-n2c(C3CCN(C(=O)c4ccc(OC(F)(F)F)cc4)CC3)n[nH]c2=O)cc1 | inconclusive: 3.55 µM [inhibitor, full curve, poor fit]
36 | Cc1ccc2nc(CO[C@H]3CN(Cc4ccc5c(c4)OCO5)C[C@H]3F)[nH]c2c1 | inconclusive: 11.2 µM [inhibitor, single point]
37 | COCCc1noc(C2CCCCN2C(=O)CN2C(=O)OC(C)(C)C2=O)n1 (configuration not stated) | inactive
38 | COCCCNC(=O)C(NC(=O)c1ccc(C)cc1)C1CCN(C(=O)c2ccccc2C)CC1 (configuration not stated) | inactive
39 | Cc1ccccc1NC(=O)CSc1nc(-c2ccccc2)cn1-c1ccccc1F | inconclusive: 17.8 µM [inhibitor, single point]
40 | O=C(NC1CCCC1)c1ccc2c(=O)n(Cc3ccccc3)c(SCc3cccc([N+](=O)[O-])c3)nc2c1 | inconclusive: 17.8 µM [inhibitor, single point]
41 | CNCCN1C(=O)CC[C@H]2CN(C(=O)c3cnc4c(c3)CCCC4)CC[C@H]21 | inactive
42 | COc1cccc(-n2c(-c3ccccc3F)nc3c(cnn3-c3ccc(C)cc3)c2=O)c1 | active: 8.91 µM
